In assay [1] the target is T1, CP190 from Drosophila S2 cells (Drosophila melanogaster (endogenous in S2 cells)) (UniProt Q24478).
T1 sequence: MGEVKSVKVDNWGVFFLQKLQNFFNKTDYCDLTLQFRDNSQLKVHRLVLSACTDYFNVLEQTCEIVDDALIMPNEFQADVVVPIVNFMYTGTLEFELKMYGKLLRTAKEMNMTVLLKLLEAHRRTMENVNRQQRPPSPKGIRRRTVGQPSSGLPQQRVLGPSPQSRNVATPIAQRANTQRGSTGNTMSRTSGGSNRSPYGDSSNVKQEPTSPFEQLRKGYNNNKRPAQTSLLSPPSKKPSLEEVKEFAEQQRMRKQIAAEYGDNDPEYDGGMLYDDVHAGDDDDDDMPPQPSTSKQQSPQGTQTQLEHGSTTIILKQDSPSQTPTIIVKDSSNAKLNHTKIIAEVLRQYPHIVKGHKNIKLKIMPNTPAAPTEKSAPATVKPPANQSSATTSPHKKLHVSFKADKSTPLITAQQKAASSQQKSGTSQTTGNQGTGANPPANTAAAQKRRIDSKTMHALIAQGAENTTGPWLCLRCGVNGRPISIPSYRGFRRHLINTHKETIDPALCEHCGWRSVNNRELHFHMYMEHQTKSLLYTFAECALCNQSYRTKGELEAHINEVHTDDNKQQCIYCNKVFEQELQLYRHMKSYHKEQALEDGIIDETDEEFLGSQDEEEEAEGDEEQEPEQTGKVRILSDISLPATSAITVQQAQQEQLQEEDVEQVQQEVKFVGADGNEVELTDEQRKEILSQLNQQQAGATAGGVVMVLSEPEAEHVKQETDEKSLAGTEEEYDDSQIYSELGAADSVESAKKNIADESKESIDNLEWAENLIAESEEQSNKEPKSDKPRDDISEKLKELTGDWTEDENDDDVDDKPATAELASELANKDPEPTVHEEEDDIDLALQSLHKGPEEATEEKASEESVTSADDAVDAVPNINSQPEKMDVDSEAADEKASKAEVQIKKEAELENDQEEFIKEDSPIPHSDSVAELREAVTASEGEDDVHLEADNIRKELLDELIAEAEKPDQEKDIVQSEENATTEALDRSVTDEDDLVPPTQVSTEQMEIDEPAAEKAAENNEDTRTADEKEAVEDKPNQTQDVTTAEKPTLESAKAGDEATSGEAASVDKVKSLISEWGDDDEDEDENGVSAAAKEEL
Nature of the assay: co-IP; CP190 antibodies on Protein A or G beads, nuclear lysate of S2 cells expressing FLAG-tagged dCTCF forms, overnight +4 °C; washes with 500 mM NaCl.

The target in assay [2] is T2, 3xFLAG-tagged N-terminal dCTCF-(nuclear localization signal)-LexA fusion protein (Drosophila melanogaster) (UniProt Q9VS55).
T2 sequence: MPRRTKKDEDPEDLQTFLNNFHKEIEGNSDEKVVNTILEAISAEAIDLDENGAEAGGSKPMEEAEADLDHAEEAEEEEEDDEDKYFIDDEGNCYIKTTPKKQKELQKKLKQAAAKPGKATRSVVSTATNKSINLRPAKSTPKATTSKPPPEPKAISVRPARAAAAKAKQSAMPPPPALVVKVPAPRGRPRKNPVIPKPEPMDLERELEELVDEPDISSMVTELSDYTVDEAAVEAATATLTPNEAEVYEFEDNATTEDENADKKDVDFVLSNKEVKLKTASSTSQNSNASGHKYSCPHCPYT
Briefly: chromatin immunoprecipitation of a reporter to which a LexA fusion is tethered; S2 cells co-transfected with the 4xLexA-TATA reporter and the 3xFLAG-N-terminal dCTCF-NLS-LexA construct; formaldehyde-fixed chromatin precipitated with antibodies against the dCTCF C-terminus, dCTCF N-terminus, CP190 or FLAG.

Assay [3] has as its target T3, full-length CP190 (yeast two-hybrid) (Drosophila) (UniProt Q24478).
T3 sequence: T1 sequence
Briefly: two-hybrid; yeast; dCTCF or its parts fused to GAL4 AD, CP190 or its sub-fragments fused to GAL4 DNA BD (Fig. 3b).

Assay [4] concerns the target T4, GST–CP190 308–468 (Drosophila) (UniProt Q24478).
T4 sequence: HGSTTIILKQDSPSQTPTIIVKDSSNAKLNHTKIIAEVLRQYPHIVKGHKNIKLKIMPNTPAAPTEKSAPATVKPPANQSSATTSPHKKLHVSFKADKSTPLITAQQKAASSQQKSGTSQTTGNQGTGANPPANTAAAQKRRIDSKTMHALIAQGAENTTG
Nature of the assay: pull-down; GST–CP190 fragments on glutathione agarose, recombinant dCTCF-CTD in solution; 2 h room temperature, buffer C; washes with 500 mM NaCl (Fig. 3f); both purified.

Assay [5] addresses T5, GST–CP190 308–517 (Drosophila) (UniProt Q24478).
T5 sequence: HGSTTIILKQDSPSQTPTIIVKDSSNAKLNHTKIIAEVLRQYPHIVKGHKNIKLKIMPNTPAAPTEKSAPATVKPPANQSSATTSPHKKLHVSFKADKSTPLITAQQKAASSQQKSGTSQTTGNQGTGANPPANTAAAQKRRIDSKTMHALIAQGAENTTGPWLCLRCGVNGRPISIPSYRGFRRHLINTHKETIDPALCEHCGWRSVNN
The assay is described as above.

In assay [6] the target is dCTCF NTD 1–125 (Drosophila melanogaster) (UniProt Q9VS55). Nature of the assay: cross-linking; one protein alone at 5 μM, increasing glutaraldehyde, 10 min at room temperature, 20 mM HEPES-KOH pH 7.7, 150 mM NaCl, 20 mM imidazole, 1 mM β-mercaptoethanol; SDS-PAGE, silver staining; both purified.

Results are given in words; binding and its absence hold for the method and conditions named. For some assays here: In cells and extracts the contact can be indirect. Some entries that bind do so weakly or less than the wild type. For some assays here: Sequences can lack the tags named with a protein.

B1: FLAG-tagged dCTCFΔ610-723 (protein, UniProt Q9VS55)
chain: MPRRTKKDEDPEDLQTFLNNFHKEIEGNSDEKVVNTILEAISAEAIDLDENGAEAGGSKPMEEAEADLDHAEEAEEEEEDDEDKYFIDDEGNCYIKTTPKKQKELQKKLKQAAAKPGKATRSVVSTATNKSINLRPAKSTPKATTSKPPPEPKAISVRPARAAAAKAKQSAMPPPPALVVKVPAPRGRPRKNPVIPKPEPMDLERELEELVDEPDISSMVTELSDYTVDEAAVEAATATLTPNEAEVYEFEDNATTEDENADKKDVDFVLSNKEVKLKTASSTSQNSNASGHKYSCPHCPYTASKKFLITRHSRSHDVEPSFKCSICERSFRSNVGLQNHINTHMGNKPHKCKLCESAFTTSGELVRHTRYKHTKEKPHKCTECTYASVELTKLRRHMTCHTGERPYQCPHCTYASQDMFKLKRHMVIHTGEKKYQCDICKSRFTQSNSLKAHKLIHSVVDKPVFQCNYCPTTCGRKADLRVHIKHMHTSDVPMTCRRCGQQLPDRYQYKLHVKSHEGEKCYSCKLCSYASVTQRHLASHMLIHLDEKPFHCDQCPQAFRQRQLLRRHMNLVHNEEYQPPEPREKLHKCPSCPREFTHKGNLMRHMETHQRGTKTFHIKEEPDNSDFTVEWQGDDGEVMVVELVNGDEEVLVKHEPSANSKISAKNCFGFEDDDDYEEYGDGENEVDGASQEFLQLMDMIEQDS
B1: the binding entry in assay [1] is “no binding”.

B2: FLAG-tagged dCTCFΔ774-818 (protein, UniProt Q9VS55)
chain: MPRRTKKDEDPEDLQTFLNNFHKEIEGNSDEKVVNTILEAISAEAIDLDENGAEAGGSKPMEEAEADLDHAEEAEEEEEDDEDKYFIDDEGNCYIKTTPKKQKELQKKLKQAAAKPGKATRSVVSTATNKSINLRPAKSTPKATTSKPPPEPKAISVRPARAAAAKAKQSAMPPPPALVVKVPAPRGRPRKNPVIPKPEPMDLERELEELVDEPDISSMVTELSDYTVDEAAVEAATATLTPNEAEVYEFEDNATTEDENADKKDVDFVLSNKEVKLKTASSTSQNSNASGHKYSCPHCPYTASKKFLITRHSRSHDVEPSFKCSICERSFRSNVGLQNHINTHMGNKPHKCKLCESAFTTSGELVRHTRYKHTKEKPHKCTECTYASVELTKLRRHMTCHTGERPYQCPHCTYASQDMFKLKRHMVIHTGEKKYQCDICKSRFTQSNSLKAHKLIHSVVDKPVFQCNYCPTTCGRKADLRVHIKHMHTSDVPMTCRRCGQQLPDRYQYKLHVKSHEGEKCYSCKLCSYASVTQRHLASHMLIHLDEKPFHCDQCPQAFRQRQLLRRHMNLVHNEEYQPPEPREKLHKCPSCPREFTHKGNLMRHMETHDDSANAREKRRRLKLGRNVRLQKDGTVITLIKDQYVDMDRDQEENEEDDNPESYDLAEIEPENSEAEDADDDVETIVSDPIRQRIKPAPIIINKQARLAASEKQPMIINQRLRSQRGTKTFHIKEEPDNSDFTVEWQGDDGEVMVVELVNGDEEVLVKHEPSAN
In the case of B2, the binding result in assay [1] was “no binding”.

B3: endogenous full-length dCTCF (protein, UniProt Q9VS55 1-818)
chain: MPRRTKKDEDPEDLQTFLNNFHKEIEGNSDEKVVNTILEAISAEAIDLDENGAEAGGSKPMEEAEADLDHAEEAEEEEEDDEDKYFIDDEGNCYIKTTPKKQKELQKKLKQAAAKPGKATRSVVSTATNKSINLRPAKSTPKATTSKPPPEPKAISVRPARAAAAKAKQSAMPPPPALVVKVPAPRGRPRKNPVIPKPEPMDLERELEELVDEPDISSMVTELSDYTVDEAAVEAATATLTPNEAEVYEFEDNATTEDENADKKDVDFVLSNKEVKLKTASSTSQNSNASGHKYSCPHCPYTASKKFLITRHSRSHDVEPSFKCSICERSFRSNVGLQNHINTHMGNKPHKCKLCESAFTTSGELVRHTRYKHTKEKPHKCTECTYASVELTKLRRHMTCHTGERPYQCPHCTYASQDMFKLKRHMVIHTGEKKYQCDICKSRFTQSNSLKAHKLIHSVVDKPVFQCNYCPTTCGRKADLRVHIKHMHTSDVPMTCRRCGQQLPDRYQYKLHVKSHEGEKCYSCKLCSYASVTQRHLASHMLIHLDEKPFHCDQCPQAFRQRQLLRRHMNLVHNEEYQPPEPREKLHKCPSCPREFTHKGNLMRHMETHDDSANAREKRRRLKLGRNVRLQKDGTVITLIKDQYVDMDRDQEENEEDDNPESYDLAEIEPENSEAEDADDDVETIVSDPIRQRIKPAPIIINKQARLAASEKQPMIINQRLRSQRGTKTFHIKEEPDNSDFTVEWQGDDGEVMVVELVNGDEEVLVKHEPSANSKISAKNCFGFEDDDDYEEYGDGENEVDGASQEFLQLMDMIEQDS
As to B3, the binding entry in assay [2] is “binds”.

B4: full-length dCTCF fused to the GAL4 activation domain (protein, UniProt Q9VS55 1-818)
chain: B3 chain
On to B4, for which, in assay [3], the binding result was “binds”.

B5: FLAG-tagged wild-type dCTCF (protein, UniProt Q9VS55 1-818)
chain: B3 chain
As to B5, the binding entry in assay [1] was “binds”.

B6: dCTCF–CTD 612–818 protein (domain or fragment, UniProt Q9VS55 612-818)
chain: SANAREKRRRLKLGRNVRLQKDGTVITLIKDQYVDMDRDQEENEEDDNPESYDLAEIEPENSEAEDADDDVETIVSDPIRQRIKPAPIIINKQARLAASEKQPMIINQRLRSQRGTKTFHIKEEPDNSDFTVEWQGDDGEVMVVELVNGDEEVLVKHEPSANSKISAKNCFGFEDDDDYEEYGDGENEVDGASQEFLQLMDMIEQDS
Regarding B6, the binding entry in assay [4] and in assay [5] was “binds weakly” throughout.

B7: dCTCF NTD 1–125 (domain or fragment, UniProt Q9VS55 1-125)
chain: MPRRTKKDEDPEDLQTFLNNFHKEIEGNSDEKVVNTILEAISAEAIDLDENGAEAGGSKPMEEAEADLDHAEEAEEEEEDDEDKYFIDDEGNCYIKTTPKKQKELQKKLKQAAAKPGKATRSVVS
For the molecule B7, in assay [6], the binding entry is on record as “binds weakly”.

Values taken from paper PMC4528719, “Functional role of dimerization and CP190 interacting domains of CTCF protein in Drosophila melanogaster” (BMC Biology, 2015).
